Experimental data reported in PubChem BioAssay AID1347073 (National Center for Advancing Translational Sciences (NCATS), 2019).
The whole screen tested about 45,000 compounds, of which about 200 (0.44%) were called active. The shares of active, inactive and inconclusive entries below differ from those in the screen. The call rests on the fitted dose curve; in most records, active means well fitted activation curve with a large enough effect; inconclusive means small, poorly fitted or top-dose-only effect; inactive means no such curve, though single readings can be large or run the other way. Potencies of inconclusive entries are doubtful fits and often do not repeat.

Test: qHTS of TDP-43 Inhibitors: NCGC Sytravon Library Screen; further: nearly all actives have a fitted effect of over 55% in size; on growth rescue (activation): 0% is about no effect
Settings: yeast TDP-43 toxicity rescue, BacTiter-Glo growth, 24 h; growth rescue (activation): at 46.1 µM (top of the series)
Summary of the method: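 TDP-43-expressing yeast, pregrown in raffinose, seeded at OD600 0.02 in galactose medium with compound for 24 hr at 30 deg C. Growth read by BacTiter-Glo luminescence, so rescue of toxicity appears as activation.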
Potency means the concentration at half of the fitted maximal effect; tags describe the fitted curve by direction and shape.

Row | Compound | Potency | growth rescue (activation)
1 | OC(CNc1nc(C(F)(F)F)nc2ccccc12)c1ccccc1 (configuration not stated) | inconclusive: 11.2 µM [activator, partial curve, poor fit] | 
2 | Cc1c(CCC(=O)N[C@@H](CCCNC(N)=O)C(=O)O)c(=O)oc2cc3oc4c(c3cc12)CCCC4 | inconclusive: 35.5 µM [activator, single point] | 
3 | O=C(COc1ccc(Cc2ccccc2)cc1)c1ccc(F)cc1 | inconclusive: 10 µM [activator, partial curve] | 
4 | CC1(C)CC(=O)C(C=Nc2cc(C(=O)c3ccccc3)ccc2N)=C(O)C1 | inconclusive: 11.2 µM [activator, partial curve, poor fit] | 
5 | CCc1ccc2oc(C(=O)N(Cc3ccc(N(C)C)cc3)Cc3ccco3)c(C)c2c1 | inconclusive: 15.8 µM [activator, single point] | 
6 | O=C(Nc1cc(C(F)(F)F)ccc1Cl)C(Sc1cccc[n+]1[O-])c1ccccc1 (configuration not stated) | inconclusive: 22.4 µM [activator, single point] | 
7 | Cc1cc(NC(=O)COC(=O)c2cccc(S(=O)(=O)N(C)C3CCCCC3)c2)no1 | inconclusive: 35.5 µM [activator, single point] | 
8 | CC(Cc1cccs1)NC(=S)Nc1ccc(F)cc1 (configuration not stated) | inconclusive: 12.6 µM [activator, single point] | 
9 | CC1(C(=O)Nc2ccc(Cl)cc2)Cc2c(-c3ccc4c(c3)OCO4)ccnc2O1 (configuration not stated) |  | inconclusive: 77.8% [activator]
10 | Cn1c(-c2csc(-c3ccccc3)n2)n[nH]c1=S | inconclusive: 7.08 µM [activator, partial curve] | 
11 | C#CCn1c(O)c(N=NC(=O)C(O)c2ccccc2)c2ccccc21 (configuration not stated) | inconclusive: 35.5 µM [activator, single point] | 
12 | CN1/C(=C\C(=O)c2cncc(Br)c2)C(C)(C)c2ccccc21 | inconclusive: 12.6 µM [activator, partial curve, poor fit] | 
13 | O=C(c1ccc2c(c1)N(Cc1ccc(F)cc1)C(=O)c1ccccc1S2(=O)=O)N1CCCCC1 |  | inactive: -1.85%
14 | Cc1nn(-c2ccccc2)c2nc(C(Cl)(Cl)Cl)[nH]c(=O)c12 | inconclusive: 35.5 µM [activator, single point] | 
15 | Nc1nc(NCC(=O)O)nc(NCc2ccccc2)c1[N+](=O)[O-] |  | inactive: 11.8%
16 | Cn1c(=O)c2cc(NC(=O)Cc3ccccc3F)ccc2n1-c1ccc(C(C)(C)C)cc1 |  | inconclusive: 46.9% [activator]
17 | COc1ccc(OC)c(NC(=O)COC(=O)COc2c(Cl)cc(Cl)c3ccc(C)nc23)c1 | inconclusive: 35.5 µM [activator, single point] | 
18 | O=C(NNC(=O)c1sccc1-n1cccc1)Nc1ccc(F)cc1 | inconclusive: 15.8 µM [activator, partial curve, poor fit] | 
19 | O=C(C[n+]1cc(Br)cc(Br)c1)c1ccc(Cl)cc1 |  | inactive: -5.05%
20 | COc1ccc(NC(=O)c2ccco2)cc1NC(=O)c1cc(Cl)ccc1OC |  | inactive: 12%
21 | Cc1c(OCC(N)=O)ccc2c(-c3ccccc3)cc(=O)oc12 |  | inactive: 4.03%

Row | Compound | Potency | growth rescue (activation)
22 | Cc1cccc(OC(=O)c2sc3ncn(C)c(=O)c3c2C)c1 | inconclusive: 35.5 µM [activator, single point] | 
23 | Cc1cc(SC#N)cc(C)c1NC(=O)CCl | inconclusive: 6.31 µM [activator, single point] | 
24 | Cc1cc(C(=O)N/N=C/c2sc(N3CCOCC3)nc2-c2ccccc2)c(C)o1 |  | inactive: -5.4%
25 | CN(C)c1cccc(NC(=O)C2Cc3c(-c4ccccc4Oc4ccccc4)ccnc3O2)c1 (configuration not stated) | inconclusive: 35.5 µM [activator, single point] | 
26 | CCOc1ccc2ccccc2c1CNc1nnnn1CC | inconclusive: 35.5 µM [activator, single point] | 
27 | COc1ccc(-c2csc(NC(=O)Cc3ccccc3F)n2)c(OC)c1 | inconclusive: 11.2 µM [activator, partial curve, poor fit] | 
28 | CCNC(=S)Nc1ccc(Cl)cc1 |  | inactive: 21.3%
29 | O=C(NC(=S)NCc1ccc(Cl)cc1)c1ccco1 | inconclusive: 17.8 µM [activator, single point] | 
30 | Cc1snc(SCc2cccc(Cl)c2)c1C#N | inconclusive: 11.2 µM [activator, partial curve, poor fit] | 
31 | Cn1c(/C=C/c2cccc(Br)c2)nc2ccccc2c1=O | inconclusive: 5.62 µM [activator, full curve] | 
32 | COc1cc2nc(-c3ccc(Br)o3)oc(=O)c2cc1OC | inconclusive: 8.91 µM [activator, single point] | 
33 | O=C(NCCc1c[nH]c2ccccc12)c1ccc(F)cc1F | inconclusive: 25.1 µM [activator, partial curve, poor fit] | 
34 | Cc1c(Cl)cccc1NC(=S)N=Nc1c(O)n(CN2CCOCC2)c2ccccc12 | inconclusive: 3.55 µM [activator, partial curve, poor fit] | 
35 | CCc1cccc(NS(=O)(=O)c2c(C)nc3scc(C)n3c2=O)c1 | inconclusive: 11.2 µM [activator, partial curve, poor fit] | 
36 | Cc1ccc(NC(=S)N(CCC(C)C)C(C)c2ccncc2)c(Cl)c1 (configuration not stated) | inconclusive: 25.1 µM [activator, single point] | 
37 | Cc1cccc(NC(=O)Cn2nnc(-c3nc(-c4ccncc4)no3)c2N)c1 |  | inactive: 13.9%
38 | Cc1cc(C)c(S(=O)(=O)N2CCN=C2c2ccccc2)c(C)c1 | inconclusive: 35.5 µM [activator, single point] | 
39 | COc1ccccc1NC(=O)CCC(=O)OCc1ccc(Br)cc1 | inconclusive: 11.2 µM [activator, partial curve, poor fit] | 
40 | CCCCCCNc1cc(C)oc(=O)c1C(C)=O | inconclusive: 11.2 µM [activator, partial curve, poor fit] | 
41 | Cc1cc(C)cc(C(=O)Nc2cccc(NC(=O)c3ccco3)c2)c1 | inconclusive: 15.8 µM [activator, single point] | 
42 | CN1CCN(c2ccc(NC(=O)c3ccc([N+](=O)[O-])o3)cc2Cl)CC1 |  | inactive: 23.9%
